Experimental data: article PMC4336329 (PLoS ONE, 2015)
The campaign covered roughly 310,000 compounds. About 2,200 (0.71%) showed an effect of 50% or more. The effect is printed as a negative number. The list shows a part of the results.

molecular target: human ether-à-go-go-related gene (hERG) potassium channel (human, UniProt Q12809); experiment: primary screen, population patch clamp on CHO cells stably expressing hERG
Sequence (Q12809 whole entry, looked up): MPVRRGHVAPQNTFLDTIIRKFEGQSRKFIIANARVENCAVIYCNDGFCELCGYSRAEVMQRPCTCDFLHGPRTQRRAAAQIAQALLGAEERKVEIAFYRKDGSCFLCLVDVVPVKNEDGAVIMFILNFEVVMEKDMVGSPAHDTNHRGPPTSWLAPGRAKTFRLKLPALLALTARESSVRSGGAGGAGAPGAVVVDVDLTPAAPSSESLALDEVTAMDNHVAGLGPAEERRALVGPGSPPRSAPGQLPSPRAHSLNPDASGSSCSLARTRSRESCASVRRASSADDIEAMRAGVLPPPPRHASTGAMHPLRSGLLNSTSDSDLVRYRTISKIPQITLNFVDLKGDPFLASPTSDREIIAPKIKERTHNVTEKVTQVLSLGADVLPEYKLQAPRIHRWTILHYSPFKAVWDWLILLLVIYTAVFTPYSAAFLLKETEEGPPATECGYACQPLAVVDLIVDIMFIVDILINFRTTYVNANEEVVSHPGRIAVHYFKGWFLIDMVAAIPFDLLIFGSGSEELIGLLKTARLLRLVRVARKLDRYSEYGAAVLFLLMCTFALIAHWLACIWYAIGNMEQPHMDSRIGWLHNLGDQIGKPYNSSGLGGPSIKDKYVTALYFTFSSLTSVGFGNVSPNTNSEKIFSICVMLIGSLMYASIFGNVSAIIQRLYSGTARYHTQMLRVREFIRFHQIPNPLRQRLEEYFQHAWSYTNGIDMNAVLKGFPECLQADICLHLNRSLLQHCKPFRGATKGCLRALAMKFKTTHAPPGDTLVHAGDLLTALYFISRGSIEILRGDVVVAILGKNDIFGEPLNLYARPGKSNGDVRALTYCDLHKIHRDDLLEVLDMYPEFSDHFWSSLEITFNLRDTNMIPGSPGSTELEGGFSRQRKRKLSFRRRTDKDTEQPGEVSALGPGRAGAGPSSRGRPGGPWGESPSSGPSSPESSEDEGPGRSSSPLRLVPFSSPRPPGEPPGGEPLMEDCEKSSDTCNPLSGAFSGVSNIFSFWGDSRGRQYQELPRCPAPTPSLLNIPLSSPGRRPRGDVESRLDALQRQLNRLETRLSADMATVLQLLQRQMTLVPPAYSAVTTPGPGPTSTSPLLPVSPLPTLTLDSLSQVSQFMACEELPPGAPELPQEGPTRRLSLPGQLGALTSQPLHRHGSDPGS

SMILES	hERG current change (%, negative = inhibition) at 1uM [%]
CC(=O)Oc1cccc2c1C(=O)c1c(OC(C)=O)cc(C(=O)O)cc1C2=O	10.5
CC1(NC(=O)C2CCN(C(=O)Nc3ccccc3)CC2)CCS(=O)(=O)C1 (stereo not shown)	-6.43
O=C(Nc1ccc(Cl)c(Cl)c1)Nc1nnc(CSc2ccccc2)s1	9.56
O=S(=O)(c1ccccc1)N(Cc1cccc(F)c1)c1ccccc1	19.4
O=P(O)(OCc1ccccc1)OCc1ccccc1	8.15
CCOC(=O)c1ccc(NC(=O)CN2CCc3ccccc3C2)cc1	-7.73
O=C(COC(=O)Cn1cnc2ccccc21)NCCCc1ccccc1	5.51
C=CCSc1nnc(NC(=O)CSc2nc(CCC)cc(=O)[nH]2)s1	1.07
COc1cccc(CN2CCC(Oc3ccc(C(=O)N4CCCCC4)cc3)CC2)c1O	9.08
C[C@@H](C(=O)OCC(=O)NCCc1ccc(S(N)(=O)=O)cc1)N1C(=O)C2CCCCC2C1=O (stereo partly shown)	12
S=C(Nc1ccccc1Oc1ccccc1)NC1CCCC1	5.54
Nc1nonc1C(=O)N/N=C/c1ccc(-c2ccc(Cl)c(C(=O)O)c2)o1	15.2
Cc1occc1C(=O)NCc1ccc2c(c1)OCO2	17.3
CSc1nc(-c2ccc(Cl)cc2)nn1S(=O)(=O)c1ccccc1	4.02
CCOC(=O)Nc1ccc(OC)c([N+](=O)[O-])c1	10.9
COc1cccc(NS(=O)(=O)c2cc3c4c(c2)CCC(=O)N4CCC3)c1	7.63
FC(F)c1nc2ccccc2[nH]1	13.5
Cc1nc2sc3c(c2c(=O)n1N)CCC3	14.5
Cc1ccc(C(C)C)c(OCCNCCc2ccccc2)c1.O=C(O)C(=O)O	5.84
CCCCCC(=O)N=Nc1c(O)[nH]c2ccc([N+](=O)[O-])cc12	4.59
O=C(C1=C[C@@H](C2CCCCC2)C[C@@H](OCCCCO)O1)N1CCN(Cc2ccccc2)CC1	0.371
Cc1ccc(CN2C(=O)N/C(=C/c3ccc(-c4ccc(C(=O)O)cc4)o3)C2=O)cc1	11.5

SMILES	hERG current change (%, negative = inhibition) at 1uM [%]
CC(C)(C)OC(=O)N1CCC(Cc2cc(-c3cccnc3)no2)(C(=O)O)CC1	8.24
CCOc1cc(/C=C2/C(=O)NC(=O)N(c3ccc(CC)cc3)C2=O)ccc1OC(=O)c1cccs1	13.4
O=C(c1ccc(Cl)cc1)N1CCN=C1c1ccccc1	7.31
CCCNC(=O)Cn1cnc2sc(C(=O)NCCCN3CCOCC3)c(C)c2c1=O	2.09
CCOC(=O)c1cnc(-c2ccccc2)nc1Oc1ccc(Cl)c(Cl)c1	3.19
COCc1ccc(C(=O)NC2CCCN(Cc3ccccc3F)C2)o1 (stereo not shown)	9.3
O=C(C1CCN(S(=O)(=O)c2ccccc2)CC1)N1CCc2ccccc21	18.9
O=C(O)c1ccc(/C=N/NC(=O)C(O)(c2ccccc2)c2ccccc2)cc1	13.4
CC1(C)Cc2cccc(OCC(=O)O)c2O1	16.1
O=C(c1ccc(S(=O)(=O)Cc2ccccc2F)c([N+](=O)[O-])c1)N1CCCCCC1	10.3
CC(=O)c1c(C)n(-c2ccc(C)cc2)c2ccc(O)cc12	7.9
CCN1CCN(c2oc(-c3ccc([N+](=O)[O-])cc3)nc2C#N)CC1	-0.266
CC(NC(=O)COC(=O)c1ccccc1Nc1ccccc1)c1ccccc1 (stereo not shown)	-2.2
CCCCNC(=S)NCc1ccc2c(c1)cc(C)n2C	12.4
COc1ccc(NC(=O)C2CCCN(S(=O)(=O)c3c(C)n[nH]c3C)C2)c(OC)c1 (stereo not shown)	4.33
Cc1cc(C)c2c(c1)NC(c1cc3c(cc1Br)OCO3)C1CC=CC21 (stereo not shown)	10.8
CCS/C(N)=N/N=C/c1cc(C)ccc1O	11.9
CN1C(=O)CN=C(c2ccccc2Cl)c2cc(Br)ccc21	3.36
Cc1ccc(S(=O)(=O)N(C)CC(=O)N2CCN(Cc3ccccc3)CC2)cc1	4.48
Br.COc1ccc(N=C/C=C2/C=C(c3ccccc3)OC(C)(C)O2)cc1	1.14
O=C(Cc1ccccc1)NC(=S)Nc1ccc(N2CCCCC2)cc1	5.03
Cc1nnc(NC(=O)C2CCCCC2)s1	12

SMILES	hERG current change (%, negative = inhibition) at 1uM [%]
Cc1ccc([N+](=O)[O-])cc1S(=O)(=O)Nc1ccc(C(=O)NCc2ccccn2)cc1	22.9
CN(CC(=O)N1CCCC1)S(=O)(=O)c1cccc(Cl)c1	13
CCCCNC(=O)OCC(CC)NC(=O)OCC(C)C (stereo not shown)	13.7
CCn1ncc(Br)c1C(=O)Nc1cc(C(=O)OC)ccc1C(=O)OC	3.18
CC(=O)Nc1ccc(S(=O)(=O)N2CCN(Cc3csc(C)n3)CC2)cc1	19.7
Nc1nnnn1/N=C/c1cccc(Br)c1	17.5
CCn1c2ccccc2c2cc(NC(=O)c3coc(=O)c(Br)c3)ccc21	10.5
CCOc1cc(/C=C2\SC(=N)N(c3nccs3)C2=O)ccc1OCCN1CCOCC1	-2.79
CCn1cc(C(=O)NCc2cccnc2)c(=O)c2cc(F)c(N3CCN(C(=O)c4ccco4)CC3)cc21	0.951
CCN1CCCc2cc(CN(CCN3CCOCC3)C(=S)Nc3cccc(C)c3)ccc21	12.6
O=C(CSc1ccccc1)Nc1ccc(-c2nc3ccccc3[nH]2)cc1	9.37
CSc1ccccc1NC(=O)CN1CCN(c2ccccn2)CC1	5
CC1=C(C(=O)N2CCOCC2)C(c2c(C)cc(C)cc2C)NC(=S)N1 (stereo not shown)	9.21
CN1CCN(c2ccc(NC(=O)c3ccc4c(c3)OCCO4)cc2Cl)CC1	-21.1
O=C(NCCc1ccccc1)C(c1cccs1)N(C(=O)CCl)c1ccc(Cl)cc1 (stereo not shown)	5
CCOC(=O)c1cnc(SC)nc1Sc1ccccc1Cl	18.7
COc1cccc(/C=N/NC(=O)c2[nH]nc3c2CCc2ccccc2-3)c1O	10.2
Cn1c(SCc2ccc(Br)cc2)nc2c(c1=O)SCC2	17.4
CC(=O)Nc1ccc(S(=O)(=O)Nc2nc3ccccc3nc2N2CCc3ccccc3C2)cc1	6.78
CC(C)CN1CCN(Cc2nc3ccccc3s2)CC1CCO (stereo not shown)	-5.53
O=S1(=O)CCN=C2SC3=C(CCCC3)N21	9.27
Cc1ccc(C2/C(=C(/O)c3ccc4c(c3)CC(C)O4)C(=O)C(=O)N2CCCn2ccnc2)cc1 (stereo not shown)	18.8

SMILES	hERG current change (%, negative = inhibition) at 1uM [%]
COCCN(Cc1cc2ccccc2[nH]c1=O)C(=O)c1ccccc1OC	-1.31
CC(Oc1ccc2c3c(c(=O)oc2c1)CCC3)C(=O)NCC1CCC(C(=O)O)CC1 (stereo not shown)	10.5
C=CCNC(=O)Nc1ccc2oc(C)nc2c1	-0.0811
CN(CC(=O)Nc1ccc(S(=O)(=O)N2CCCC2)cc1)Cc1ccc(Cl)cc1	13.3
O=C(Nc1ccc(Br)cc1)C(c1ccccc1)c1ccccc1	13.9
CCOc1cc(NC(=S)NCC2CCCO2)c(OCC)cc1NC(=O)c1ccccc1C (stereo not shown)	-11
CCc1c(C)nc(N2CCN(c3ccc(OC)cc3)CC2)[nH]c1=O	12.8
Cc1ccc(CNS(=O)(=O)c2ccc3oc(C(=O)O)c(C)c3c2)cc1	-1.47
COc1ccc(NC(=O)CSc2c3c(nc4ccccc24)CCC3)c(OC)c1	-3.61
CCc1nc2c(c(=O)c3ccccc3n2C)c(=O)n1C1CCCCCC1	13.7
CCCCn1c(SCC(=O)NC2CC2)nnc1-c1ccncc1	12.4
CC(C)C(c1nnnn1Cc1ccccc1)N(CCCO)Cc1cc2cc3c(cc2[nH]c1=O)OCO3 (stereo not shown)	10.4
COc1ccccc1N1CCN(C(=O)N2CCOCC2)CC1	16.4
COc1ccc(C)cc1S(=O)(=O)N1CCCC(C(=O)N2CCN(c3ccccc3F)CC2)C1 (stereo not shown)	-1.82
CCOC(=O)N1CCC(NC(=O)c2cc(COc3ccc(F)cc3Cl)on2)CC1	-1.06
CN(C)CCN1C(=O)C(=O)/C(=C(/O)c2ccc(F)cc2)C1c1ccccc1F (stereo not shown)	14.2
C=CCN1C(=O)[C@@H]2Cc3c([nH]c4ccccc34)C(c3ccc(O)cc3)N2C1=S (stereo partly shown)	11.7
O=C(NC1CCSc2ccccc21)c1ccc(F)c(S(=O)(=O)N2CCOCC2)c1 (stereo not shown)	13.3
O=c1cc(N2CCC3(CC2)OCCO3)[nH]c(=O)n1-c1ccc(Cl)cc1	-4.19
COCCCN(C(=O)c1ccco1)c1nc(-c2ccc(OC)cc2)cs1	12.5
Cc1cc(C)n(-c2nc3ccccc3c(=O)n2OCC(C)C)n1	7.56
CN(c1ccccc1)c1ccc(/C=C(\C#N)c2nnc3n2CCCCC3)cc1[N+](=O)[O-]	-4.69
